Test results: PubChem BioAssay AID889 (National Center for Advancing Translational Sciences (NCATS), 2007)
Hit rate of the full screen: of about 75,000 compounds, about 15 (0.02%) were called active. This list was built around the results that the source calls inconclusive (neither active nor inactive); the mix of calls is not that of the screen. The call rests on the fitted dose curve; in most records, active means well fitted inhibition curve with a large enough effect in the main read-out, with a control signal flat (not every such curve was filed as active); inconclusive means small, poorly fitted or top-dose-only effect, or a change in a side signal; inactive means flat fitted curve, though single readings scatter. Where the call is inconclusive, the potency comes from a doubtful curve fit. “Side channel” marks fits to a control or component signal instead of the main read-out.
Potency means the concentration at half of the fitted maximal effect; tags describe the fitted curve by direction and shape or compound fluorescence and quenching.
Wherever activity change, negative = inhibition is given: % of control where 0% means no effect.

These compounds were tested against Caspase-7 (Homo sapiens) (UniProt P55210) (assay: qHTS Assay for Allosteric/Competitive Inhibitors of Caspase-7). Settings: recombinant caspase-7, Ac-DEVD-AFC fluorescence rate; activity change, negative = inhibition: at 57.5 µM (top of the series) unless noted.
Chain of UniProt P55210 (P55210 whole entry, looked up): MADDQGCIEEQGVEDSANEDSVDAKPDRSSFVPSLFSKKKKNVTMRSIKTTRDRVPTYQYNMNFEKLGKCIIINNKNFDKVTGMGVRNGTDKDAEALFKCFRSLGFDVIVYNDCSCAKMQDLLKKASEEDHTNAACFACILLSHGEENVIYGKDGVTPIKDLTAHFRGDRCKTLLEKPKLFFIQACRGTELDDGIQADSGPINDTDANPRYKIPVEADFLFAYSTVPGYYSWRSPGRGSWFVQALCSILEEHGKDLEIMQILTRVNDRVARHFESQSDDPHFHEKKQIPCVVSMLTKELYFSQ
In the case of `CC(=O)Nc1c(OC(C)=O)ccc2c(C)cc(=O)oc12`, the Potency is reported as inconclusive: 12.6 µM [fluorescent, partial curve]. For `O=C(CSc1nc2ccccc2o1)c1cc2ccccc2oc1=O`, the Potency was inconclusive: 31.6 µM [inhibitor, single point]. For `CN1CCN(c2ncc3nc(-c4ccc(Cl)cc4)c(=O)n(Cc4ccc(F)cc4)c3n2)CC1`, the Potency was inconclusive: 12.6 µM [fluorescent, side channel, partial curve]. With `COCc1cc(C)nc2sc(C(=O)Nc3nccs3)c(N)c12` the Potency was inconclusive: 25.1 µM [fluorescent, partial curve]. With `NC(=O)C1CCN(C(=O)CN2CCCc3ccccc32)CC1` the Potency was inconclusive: 31.6 µM [inhibitor, single point]. `COCC(=O)/C=C1\Sc2ccccc2N1C` was tested, and the “activity change, negative = inhibition” value was inactive: 0.744%. `CCCCN(C)c1nc(-c2ccco2)c2c(c1C#N)CC(C)(C)OC2` was tested, and the Potency was inconclusive: 15.8 µM [fluorescent, side channel, partial curve]. `CCOc1ccc(C2C=C(c3ccc(F)cc3)Nc3ncnn32)cc1` (centres undefined) was tested, and the Potency was inconclusive: 25.1 µM [fluorescent, partial curve]. With `COCCN(CCOC)c1ncnc2c1cnn2-c1ccc(Cl)cc1` the “activity change, negative = inhibition” value was inactive: -0.509%. `COc1ccc(-c2nc3cnc(Oc4ccccc4)nc3n(C3CC3)c2=O)cc1` was tested, and the Potency was inconclusive: 20 µM [fluorescent, partial curve]. In the case of `O=C(NCc1ccco1)c1cc2ccc(O)cc2oc1=O`, the Potency is reported as inconclusive: 3.16 µM [fluorescent, side channel, partial curve]. For `COC(=O)[C@@H]1C[C@H]1[C@@H](NC(=O)c1cnccn1)c1ccccc1`, the “activity change, negative = inhibition” value was inactive: -1.11%. For `CCCn1c(CCC(=O)O)ccc1-c1ccc(OC)cc1`, the Potency was inconclusive: 25.1 µM [inhibitor, partial curve]. For `CC1=NN(c2ccc(S(=O)(=O)O)cc2)C(=O)/C1=C\c1ccc(Cl)cc1`, the activity change, negative = inhibition was inactive: -1.41% [at 11.5 µM]. With `COCCn1c(=O)c(CCc2ccccc2)nc2cnc(Oc3ccc(OC)cc3)nc21` the “activity change, negative = inhibition” value was inactive: -3.51%. For `COCCN1C=C(C(=O)OC)C(c2cc(Br)c(OC)c(OC)c2)C(C(=O)OC)=C1`, the Potency was inconclusive: 12.6 µM [fluorescent, side channel, partial curve]. In the case of `CCN(CC)c1ccc2c(c1)OC(N)=C(C#N)C2c1cccnc1` (centres undefined), the Potency is reported as inconclusive: 25.1 µM [inhibitor, single point]. With `COc1ccc(-n2c(=O)cnc3cnc(N(C)C)nc32)cc1` the Potency was inconclusive: 25.1 µM [inhibitor, partial curve]. In the case of `O=c1c(-c2ccc(F)cc2)nc2cnc(N3CCNCC3)nc2n1Cc1ccc(F)cc1`, the Potency is reported as inconclusive: 12.6 µM [fluorescent, side channel, partial curve]. In the case of `CCC(C)(C)n1nnnc1CN(Cc1cc2cc(OC)ccc2[nH]c1=O)C1CCCC1`, the Potency is reported as inconclusive: 31.6 µM [fluorescent, single point]. For `OC[C@@H]1O[C@@H](n2cnc3c(SCc4ccccc4)ncnc32)[C@@H](O)[C@H]1O`, the activity change, negative = inhibition was inactive: 0.248% [at 11.5 µM]. For `COc1ccc(-c2nc3cnc(N(C)C)nc3n(C)c2=O)cc1`, the Potency was inconclusive: 2 µM [fluorescent, side channel, full curve]. `CCOC(=O)c1cnn2c(C(F)(F)F)cc(-c3ccco3)nc12` was tested, and the Potency was inconclusive: 15.8 µM [fluorescent, partial curve]. For `O=c1oc2cc(O)ccc2c2c1CCCC2`, the Potency was inconclusive: 31.6 µM [fluorescent, partial curve]. With `O=C(C1=C(O)C(=O)N(c2ncccn2)C1c1ccc(Cl)c(Cl)c1)c1ccco1` (centres undefined) the Potency was inconclusive: 31.6 µM [inhibitor, single point]. In the case of `COc1ccc2nc3c(cc2c1)c(NC(=O)c1cccs1)nn3CC(C)C`, the Potency is reported as inconclusive: 15.8 µM [fluorescent, partial curve]. In the case of `COC(=O)C/C=C\[C@@H](C)[C@@H](/C=N\O[C@@H](C)c1cc(-c2c(C)cc(C)cc2C)no1)OC`, the activity change, negative = inhibition is reported as inactive: -0.241% [at 11.5 µM]. With `C=C[C@H](N)CCC(=O)O` the Potency was “inactive”. For `CCSC1=N/C(=C\c2ccc3c(c2)OCO3)C(=O)S1`, the Potency was inconclusive: 20 µM [inhibitor, partial curve]. For `CCNc1ncc2nc(-c3ccc(Cl)cc3)c(=O)n(CCC#N)c2n1`, the Potency was inconclusive: 2 µM [fluorescent, full curve]. In the case of `C[C@H](O)[C@H](O)[C@@H]1CNc2nc(N)[nH]c(=O)c2N1`, the Potency is reported as inconclusive: 15.8 µM [inhibitor, single point]. `CCOc1ccc2nc(N3CCOCC3)nc(C)c2c1` was tested, and the Potency was inconclusive: 3.98 µM [fluorescent, side channel, full curve]. With `O=c1cc(-c2ccccc2)oc2cc(O)c(O)cc12` the Potency was inconclusive: 25.1 µM [fluorescent, side channel, partial curve]. For `O=c1c(-c2ccccc2)nc2cnc(N3CCOCC3)nc2n1C1CC1`, the Potency was inconclusive: 12.6 µM [fluorescent, side channel, partial curve]. With `CCc1nnc(NC(=O)CSc2nc3c(cc2C#N)CCC3)s1` the Potency was inconclusive: 6.31 µM [inhibitor, partial curve]. For `Cc1ccc(S(=O)(=O)c2c(N)n(NC(=O)c3ccco3)c3nc4ccccc4nc23)cc1`, the Potency was inconclusive: 31.6 µM [inhibitor, single point]. `COc1cccc(-c2nn(-c3ccccc3)cc2C(=O)NCC(=O)O)c1` was tested, and the “activity change, negative = inhibition” value was inactive: -0.549%. `CC(C)(C)NC[C@H](O)c1cc(O)cc(O)c1` was tested, and the Potency was inconclusive: 12.6 µM [inhibitor, partial curve]. For `COC(=O)CSCc1nc2ccccc2[nH]c1=O`, the Potency was inconclusive: 20 µM [fluorescent, side channel, single point]. In the case of `C=CCn1c(CC#N)nnc1N1CCOCC1`, the “activity change, negative = inhibition” value is reported as inactive: -1.58%. `N#CCCn1c(=O)c(-c2ccccc2)nc2cnc(N3CCNCC3)nc21` was tested, and the Potency was inconclusive: 5.01 µM [fluorescent, side channel, partial curve]. With `COc1ccccc1C1C=C(c2ccc(Cl)cc2)Nc2nc(NS(C)(=O)=O)nn21` (centres undefined) the Potency was inconclusive: 15.8 µM [fluorescent, side channel, partial curve]. In the case of `COc1ccc2c(c1OC)C(=O)N1c3ccccc3COC21` (centres undefined), the “activity change, negative = inhibition” value is reported as inactive: 0.961%. `CC1(C)CC(=O)c2cc(OCC(=O)NCc3cccnc3)ccc2O1` was tested, and the Potency was inconclusive: 25.1 µM [inhibitor, single point]. `CC[C@@]1(O)C(=O)COc2c1cc1n(c2=O)Cc2c-1nc1cccc(C(C)C)c1c2[Si](C)(C)C` was tested, and the Potency was inconclusive: 7.94 µM [inhibitor, partial curve]. `O=C(Nc1ccc(F)cc1)N(CCCN1CCOCC1)Cc1cc2cc3c(cc2[nH]c1=O)OCCO3` was tested, and the “activity change, negative = inhibition” value was inactive: 0.914%. With `Cc1cc(C)c2c(n1)nn1c(NCCN3CCOCC3)cc(C)nc21` the Potency was inconclusive: 15.8 µM [inhibitor, partial curve]. With `O=Nc1c(-c2c(O)[nH]c3ccccc23)[nH]c2ccccc12` the “activity change, negative = inhibition” value was inactive: -3.06%. With `CNC(=O)c1c(N)sc2c1CCCCC2` the Potency was inconclusive: 25.1 µM [inhibitor, single point]. `Cc1cc(C(F)(F)F)c2c(N)c(C(=O)Nc3cc(C)on3)sc2n1` was tested, and the Potency was inconclusive: 3.98 µM [inhibitor, single point]. `COc1cccc2cc(-c3cn4cccc(C)c4n3)c(=O)oc12` was tested, and the “activity change, negative = inhibition” value was inactive: -16.5%. For `O=c1c2ccccc2sn1-c1cc(S(=O)(=O)N2CCOCC2)ccc1N1CCOCC1`, the “activity change, negative = inhibition” value was inactive: -2.09%. `CN(C)CCCNc1c2c(c(C#N)c3nc4ccccc4n13)CCC2` was tested, and the Potency was inconclusive: 12.6 µM [inhibitor, partial curve]. With `CC1=CC(C)(C)N2C(=O)C3(SCC(=O)N3c3ccc(O)cc3)c3cc(C)cc1c32` (centres undefined) the “activity change, negative = inhibition” value was inactive: -4.68%. For `CC1CCN(CCCNC(=O)c2coc3nc4ccccc4nc23)CC1`, the Potency was inconclusive: 15.8 µM [fluorescent, partial curve]. In the case of `CC(C)c1ccc(C2CC(=O)N3CN(Cc4ccco4)CSC3=C2C#N)cc1` (centres undefined), the “activity change, negative = inhibition” value is reported as inactive: -8.54%. In the case of `CC(=O)OC[C@@H]1O[C@@H](O/N=C2/C[C@@H](O)[C@@H](O)[C@@H]3[C@@H]4C(=O)N(C(C)(C)C)C(=O)[C@H]4CC[C@H]23)[C@H](OC(C)=O)[C@H](OC(C)=O)[C@@H]1OC(C)=O`, the activity change, negative = inhibition is reported as inactive: 3.3% [at 11.5 µM]. For `C=CCn1c(=N)c(C(=O)OCC)cc2c(=O)n3cc(C)ccc3nc21`, the Potency was inconclusive: 10 µM [fluorescent, side channel, partial curve]. With `Nc1c(NCc2ccccc2F)c(=O)[nH]c(=O)n1Cc1ccccc1` the Potency was inconclusive: 31.6 µM [inhibitor, single point]. With `O=c1sc(N2CCN(c3ccccc3F)CC2)nc2ccsc12` the Potency was inconclusive: 31.6 µM [fluorescent, single point]. `Cc1ccc(S(=O)(=O)c2c(N)n(NC(=O)C3CC3)c3nc4ccccc4nc23)cc1` was tested, and the Potency was inconclusive: 25.1 µM [fluorescent, partial curve]. `CCOC(=O)N1CCN(C(=O)COc2ccc3c(c2)C(=O)CC2(CCN(C(C)=O)CC2)O3)CC1` was tested, and the Potency was inconclusive: 25.1 µM [inhibitor, single point]. For `CCN(CC)S(=O)(=O)c1cccc2cc(C(=O)O)c(O)cc12`, the Potency was inconclusive: 25.1 µM [inhibitor, single point]. `C=CCn1c(NC(=O)c2ccc(C)cc2)c(C#N)sc1=N` was tested, and the Potency was inconclusive: 39.8 µM [fluorescent, side channel, single point].
